Laboratory results published in US4740500A, “GnRH antagonists VIII” (The Salk Institute for Biological Studies, priority 1986, dated 1988).
Part of at least one peptide drawing is inferred or uncertain, most often the ends. Non-standard residues stand in square brackets, D forms with d. Residues, ends and D or L forms follow the SMILES beside them. *: point of attachment. dTrp(6-NO2) = N[C@H](Cc1c[nH]c2cc([N+](=O)[O-])ccc12)C(=O)O; dHis(τ-Bn) = N[C@H](Cc1cn(Cc2ccccc2)cn1)C(=O)O; dPhe(4-Cl) = N[C@H](Cc1ccc(Cl)cc1)C(=O)O; d2Nal = N[C@H](Cc1ccc2ccccc2c1)C(=O)O; d3Pal = N[C@H](Cc1cccnc1)C(=O)O; For = O=C*

Tested on: ovulation in female rats
Assay: in vivo test of effectiveness to prevent ovulation in female rats
Set-up: species or system Sprague-Dawley rats
Conditions: injected at about noon on the day of proestrus, rats ovulating/rats treated

Row | Compound | in vivo No. Ovulating (Dose 0.5 μg in corn oil) | in vivo No. Ovulating (Dose 1 μg in corn oil) | in vivo No. Ovulating (Dose 0.25 μg in corn oil)
1 | CC(=O)N[C@H](Cc1ccc2ccccc2c1)C(=O)N[C@H](Cc1ccc(Cl)cc1)C(=O)N[C@H](Cc1cccnc1)C(=O)N[C@@H](CO)C(=O)N[C@@H](CCCNC(=N)N)C(=O)N[C@H](Cc1c[nH]c2ccccc12)C(=O)N[C@@H](CC(C)C)C(=O)N[C@@H](CCCNC(=N)N)C(=O)N1CCC[C@H]1C(=O)N[C@H](C)C(N)=O [Peptide No. 1, [Ac-β-D-2NAL^1, 4Cl-D-Phe^2, D-3PAL^3, Arg^5, D-Trp^6, D-Ala^10]-GnRH] (Ac-[d2Nal][dPhe(4-Cl)][d3Pal]SR[dW]LRP[dA]-NH2) | 2/10 | 0/6 | –
2 | CC(=O)N[C@H](Cc1ccc2ccccc2c1)C(=O)N[C@H](Cc1ccc(Cl)cc1)C(=O)N[C@H](Cc1cccnc1)C(=O)N[C@@H](CO)C(=O)N[C@@H](CCCNC(=N)N)C(=O)N[C@H](Cc1cccnc1)C(=O)N[C@@H](CC(C)C)C(=O)N[C@@H](CCCNC(=N)N)C(=O)N1CCC[C@H]1C(=O)N[C@H](C)C(N)=O [Peptide No. 2] (Ac-[d2Nal][dPhe(4-Cl)][d3Pal]SR[d3Pal]LRP[dA]-NH2) | 5/10 | 1/16 | –
3 | CC(=O)N[C@H](Cc1ccc2ccccc2c1)C(=O)N[C@H](Cc1ccc(Cl)cc1)C(=O)N[C@H](Cc1cccnc1)C(=O)N[C@@H](CO)C(=O)N[C@@H](CCCNC(=N)N)C(=O)N[C@H](Cc1ccc2ccccc2c1)C(=O)N[C@@H](CC(C)C)C(=O)N[C@@H](CCCNC(=N)N)C(=O)N1CCC[C@H]1C(=O)N[C@H](C)C(N)=O [compound 3] (Ac-[d2Nal][dPhe(4-Cl)][d3Pal]SR[d2Nal]LRP[dA]-NH2) | 6/10 | 0/5 | 7/10
4 | CC(=O)N[C@H](Cc1ccc2ccccc2c1)C(=O)N[C@H](Cc1ccc(Cl)cc1)C(=O)N[C@H](Cc1cccnc1)C(=O)N[C@@H](CO)C(=O)N[C@@H](CCCNC(=N)N)C(=O)N[C@H](Cc1cn(Cc2ccccc2)cn1)C(=O)N[C@@H](CC(C)C)C(=O)N[C@@H](CCCNC(=N)N)C(=O)N1CCC[C@H]1C(=O)N[C@H](C)C(N)=O [compound 9] (Ac-[d2Nal][dPhe(4-Cl)][d3Pal]SR[dHis(τ-Bn)]LRP[dA]-NH2) | 0/6 | – | –
5 | CC(=O)N[C@H](Cc1ccc2ccccc2c1)C(=O)N[C@H](Cc1ccc(Cl)cc1)C(=O)N[C@H](Cc1cccnc1)C(=O)N[C@@H](CO)C(=O)N[C@@H](CCCNC(=N)N)C(=O)N[C@H](Cc1c[nH]c2cc([N+](=O)[O-])ccc12)C(=O)N[C@@H](CC(C)C)C(=O)N[C@@H](CCCNC(=N)N)C(=O)N1CCC[C@H]1C(=O)N[C@H](C)C(N)=O [compound 10] (Ac-[d2Nal][dPhe(4-Cl)][d3Pal]SR[dTrp(6-NO2)]LRP[dA]-NH2) | 0/5 | – | –
6 | CC(=O)N[C@H](Cc1ccc2ccccc2c1)C(=O)N[C@H](Cc1ccc(Cl)cc1)C(=O)N[C@H](Cc1cccnc1)C(=O)N[C@@H](CO)C(=O)N[C@@H](CCCNC(=N)N)C(=O)N[C@H](Cc1ccc(O)cc1)C(=O)N[C@@H](CC(C)C)C(=O)N[C@@H](CCCNC(=N)N)C(=O)N1CCC[C@H]1C(=O)N[C@H](C)C(N)=O [compound 11] (Ac-[d2Nal][dPhe(4-Cl)][d3Pal]SR[dY]LRP[dA]-NH2) | 11/15 | – | –
7 | CC(=O)N[C@H](Cc1ccc2ccccc2c1)C(=O)N[C@H](Cc1ccc(Cl)cc1)C(=O)N[C@H](Cc1cccnc1)C(=O)N[C@@H](CO)C(=O)N[C@@H](CCCNC(=N)N)C(=O)N[C@H](Cc1cn(C=O)c2ccccc12)C(=O)N[C@@H](CC(C)C)C(=O)N[C@@H](CCCNC(=N)N)C(=O)N1CCC[C@H]1C(=O)N[C@H](C)C(N)=O [compound 12] (Ac-[d2Nal][dPhe(4-Cl)][d3Pal]SR[dW](For)LRP[dA]-NH2) | 9/20 | – | –
